To fix the notation:
B1: tRNA (parent)
chain: CUCUCGGUAGCCAAGUUGGUUUAAGGCGCAAGACUUUAAUUUAUCACUACGAAAUCUUGAGAUCGGGCGUUCGACUCGCCCCCGGGAGAUUUUUUCCUCGAGCAA

Variants at the floor of the assay are shown more often than the library holds them.

In the data set the parent is B1. The data set is described as follows: nonsense suppression (GFP-seq) (ratio to wild type); higher = more function; SUP4oc tRNA, yeast GFP reporter sort-seq. In a few lines: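 Each variant's nonsense suppression (GFPSEQ) is a cell-share-weighted bin median GFP/RFP relative to the unmutated parent tRNA. Yeast with genome-integrated tRNA variants from a ~3% random-mutation library, a galactose-driven GFP ochre reporter and RFP were grown in raffinose/galactose medium with 80 mg/L adenine, then sorted into GFP/RFP bins for Illumina sequencing. Variants needed ≥100 reads and ≥30 cells.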
With CUCUCGGUAGCCAAGUUGGUUUAAGGUGCAAGACUUUAAUUUAUCACUACGAAAUCUUGAGAUCGGGCGUUGGACUCGCCCCGGGAAGAUUUUUUCCUCGAGCAA, the nonsense suppression is no more than 0.026.

On to CUCUCGGUAGCCAAGAUGGUUUAAGGCGCAAGACUUUAAUUUAUCACUACGAACUCAUGAGAUCGGACGUUCGACUCGCCCCCGGGAGAUUUUUUCCUCGAGCAA, for which the nonsense suppression is no more than 0.026.

With GUCUCGGUAGCCAAGUUGGUUUAAGGCGCAAGACUUUAAUUUAUCACUACGAAAUCUUGAGAUCGGGCGUUAGACUCGCCCCCGGGAGAUUUUUUCCUCGAGCAA, the nonsense suppression was no more than 0.026.

CUCUAGGUAGCCAUGUUGGUUUAAGGCGCAAGCCUUUAAUUUAUCACUACGAAACCUUGAGAUCGGGCGUUCGACUCGCCCCCGGGAGAUUUUUUCCUCGAGCAA: the nonsense suppression was no more than 0.026.

For the variant CUCUCGGUAGCCAAGUUGGUUUGAGGCGCAAGACUUUAAUUUAUCACUACGAAAUCCUGAGAUCGGGCGUUCGACUCGCCCCCGGGAGAUUUUUUCCUCGAGCAA, the nonsense suppression was no more than 0.026.

CUCUCGGUAGCCAAGUUGGUUUAGGGCGCAAGACUUUAAUUUAUCACUACGAAAUCUUGAGAUCGGGCGGUCGACUCGCCCCCGGGAGAUUUUUUCCUCGAGCAA: the nonsense suppression is no more than 0.026.

CUCUCGGUAGCCAAGUUGGUUUAAGGCGCAAGACUUUAAUUUAUCACUACGAAAUCUUAAUAUCGGGCGUGCGACUCGCCCCCGGGAGAUUUUUUCCUCGAGCAA: the nonsense suppression is no more than 0.026.

With CUCUCGGUAGCCAAGUUGGUUGAAGGCGCCAGGCUUUAAUUUAUCACUACGAAAUCUUGAAAUCGGGCGUUCGACUCGUCCCCGGGAGAUUUUUUCCUCGAGCAA, the nonsense suppression was no more than 0.026.

Consider CUCUCGGUAGCCAAGUUGGUUUAAGGCGCUAGACUUUAAUUUAUCACUACGAAAUCUUGAGAUCGGGCGUUCGACUCGCCACCGGGAUAUUUUUUCCUCGAGCAA, for which the nonsense suppression was no more than 0.026.

As for CUCUCGGUAGCCAAGUUGGUUGAAGGCGCAAGACUUUAAUUUAUCACUACGAAAUCUUGAGAUCGGGCGUUCAACUCGCCCCCGGGAGAUUUUUUCCUCGAGCAA, the nonsense suppression stood at 0.854.

For CUCUCGGUAGCCAAGUUGGGUUAAGGUGAAAUACUUUAAUUUAUCACUACGAAAUCUUGAGACCGGGCGUUCGACUCGCCCCCGGGAGAUUUUUUCCUCGAGCAA, the nonsense suppression was no more than 0.026.

With CUCUCGGUAGCCACGUUGGUUUAAGGCGCAAGACUUUAAUUUAUCACUACGAAAUCUUGAGAUCGGGCGUUCGACUCGCCGCCGGGAGAUUUUUUCCUCGAGCAA, the nonsense suppression was no more than 0.026.

Turning to CUCUCGGUACCCAAGUUGGUUUAACGCGCAAGACUUUAAUUUAUCACUACGAAAUCUUGAGAUCGGACGUUCGACUCGCCCCCGGGAGAUUUUUUCCUCGAGCAA, the nonsense suppression was no more than 0.026.

Turning to AUCUCGGUAGCCAAGUUGUUUUAAGACGCAACACUUUAAUUUAUCACUACGAAUUAUUGAGAUCGGGCGUUCGACUCGCCCGCGGGAGAUUUUUUCCUCGAGCAA, the nonsense suppression is no more than 0.026.

Regarding CUCUCGGUAGCCAAGUUGGGUUAAGGCGCUAGACUUUAAUUUAUCACUACGAAAUCUUGAGAUCGGGCGUUCGACUCGCCCCCGGGAGAUUUUUUCCUCGAGCAA, the nonsense suppression was determined as 0.444.

Regarding CUCUCGGUAGCCAAGUUGGAUUAAGGCGCAAGACUUUAAUUUAUCACUACGAAAUCUUAAGAUCGGGCGUUCGACUCGCCCCCGGGAGAUUUUUUCCUCGAGCAA, the nonsense suppression is no more than 0.026.

CUCUCGGUAGCCAAGUUGGUUUAAUGCGCAAGACUUUAAUUUAUCACUACGAAAUCUUGAGAUCGGGCGCUUGACUCGCCCCCGCGAGAUUUUUUCCUCGAGCAA: the nonsense suppression is no more than 0.026.

In the case of CUCUAGGUAGCCAAGUUGGUUUAAGUCGCAAGUCUUUAAUUUAUCACUACGAAAUCUUGAGAUCGGGCGUUCGACUCGCCCCCGGGAGAUUUUUUCCUCGAGCAA, the nonsense suppression is no more than 0.026.

On to CUCUCGGUAGUCAAUUGGGUUUAAGGCGCAAGACUUUAAUUUAUCACUACGAAAUCUUGAGAUCGGGCGUUCGACUCGCCCCCGGGAGAUUUUUUCCUCGAGCAA, for which the nonsense suppression was no more than 0.026.

On to CUCUCGGUAGCCAAGUUGGUUUAAGGCGCAAGACUUUAAUUUAUCACUACGAAAUCUUGAGAUUGGGCGUUCGACUCGCCCCUGGGAGAUUUUUUCCUCGAGCAA, for which the nonsense suppression was no more than 0.026.

As to UUCUCGGUAGCCAAGUUGGUUUAAGGCGCAAGACUUUAAUUUAUCACUACGAAAUCUUGAGAUCGGGCGUUCGACUCGCCCCCGUGAGAUUUUUUCCUCGAGCAA, the nonsense suppression was no more than 0.026.

For the variant CUCCCGGUAGCCAAGUUGUUUUAAGGCGCAAGACUUUAAUUUAUCACUACGAAAUCUUGAGAGCAGGCGUUCGACUCGCCCCCGGGAGAUUUUUUCCUCGAGCAA, the nonsense suppression was no more than 0.026.

Turning to CUCUCGGUAGCCAAGUUGGUUUAAGGCGCAAGACUUUAAUUUAUCACUACGAAAUCUUGAGCUCGGGCGUUCAACUCGCCCCCGGGAGAUUUUUUCCUCGAGCAA, the nonsense suppression is no more than 0.026.

On to CUCUCGGUAGCCAAGUUGGUUUAAGGCGCAAGACUUUAAUUUAUCACUACGAAAUCUUGAGAUCGGGAGUUCGACUCGCCCACGGGAGAUUUUUUCCUCGAGCAA, for which the nonsense suppression was no more than 0.026.

Regarding CUCUCGGUAGCCAAGGUGGUAUAAGGCGCAAGACUUUAAUUUAUCACUACGAAAUCGUGAGGUCGGGCGUUCGACUCGCCCCCGGGAGAUUUUUUCCUCGAGCAA, the nonsense suppression was no more than 0.026.

In the case of CUCUCGGUAGCCAAGUUAGUUUAAGGUGCAAGACUUUAAUUUAUCACUACGAAAUCUUCAGAUCGGGCGUUCGACUCGCCCCCGGGAGAUUUUUUCCUCGAGCAA, the nonsense suppression is no more than 0.026.

As for CCCUCGGUAGCCAAGUUGGUUUAAGGCGCAAGACUUUAAUUUAUCACUACGAAAUCUUGCGAUCGGGCGUUCGAUUCGCCCCCGGGAGAUUUUUUCCUCGAGCAA, the nonsense suppression was no more than 0.026.

These data come from the RNAGym collection of RNA variant scans (doi:10.1101/gad.245936.114).
